# Measurements reported in PubChem BioAssay AID1476 (National Center for Advancing Translational Sciences (NCATS), 2009).
# In all, about 200,000 compounds went through this assay and about 4,500 (2.2%) were called active. This list was built around the results that the source calls inconclusive (neither active nor inactive); the mix of calls is not that of the screen. Calls come from the whole dose curve; as a rule, active = well fitted inhibition curve with a large enough effect; inconclusive = small, poorly fitted or top-dose-only effect, or effect the other way; inactive = flat fitted curve, though single readings scatter. A potency beside an inconclusive call is a rough fit, not a confirmed value.
# Target: Cruzipain (Trypanosoma cruzi) (UniProt P25779)
# UniProt P25779, sequence (P25779 whole entry, looked up): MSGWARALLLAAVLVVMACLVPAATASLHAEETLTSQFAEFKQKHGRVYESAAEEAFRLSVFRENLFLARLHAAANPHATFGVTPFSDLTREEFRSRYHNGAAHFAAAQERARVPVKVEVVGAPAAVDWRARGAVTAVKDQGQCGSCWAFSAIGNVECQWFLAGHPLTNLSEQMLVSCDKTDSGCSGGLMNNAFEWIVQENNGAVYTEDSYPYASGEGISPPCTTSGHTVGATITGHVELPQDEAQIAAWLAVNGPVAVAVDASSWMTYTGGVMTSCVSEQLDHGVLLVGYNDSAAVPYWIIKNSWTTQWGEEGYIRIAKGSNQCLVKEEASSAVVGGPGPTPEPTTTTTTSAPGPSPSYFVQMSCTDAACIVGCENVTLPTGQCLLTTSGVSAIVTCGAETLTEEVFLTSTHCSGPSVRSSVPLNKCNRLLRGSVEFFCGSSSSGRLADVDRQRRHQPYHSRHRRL
# Experiment: qHTS Assay for Promiscuous and Specific Inhibitors of Cruzain (without detergent); note: nearly all actives have a fitted effect of over 40% in size;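 for max response, negative = inhibition: plate controls were enzyme without inhibitor for no effect and buffer without enzyme for full effect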
# Conditions: purified cruzain, Z-FR-AMC fluorescence, no detergent
# Procedure, shortened: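 Detergent-free condition (0.00005% Triton X-100) in acetate buffer pH 5.5 with DTT. 1.5 nM enzyme and compound were pre-mixed 15 min, then 2 uM Z-FR-AMC substrate added; reaction progress from fluorescence change between first and third reads (60 s).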
# Potency is the fitted concentration of half-maximal effect; tags give direction and shape of the fitted curve.
Compound,Potency,"max response, negative = inhibition"
COc1cccc(N2C(=O)CC(c3c[nH]c4ccccc34)C2=O)c1 (stereo not drawn),"inconclusive: 25.1 µM [inhibitor, partial curve]",–
O=C(NCc1nc2ccccc2[nH]1)c1cc2ccccc2oc1=O,active: 7.94 µM,–
CCNc1ncc2nc(-c3cc(F)cc(F)c3)c(=O)n(CCOC)c2n1,"inconclusive: 6.31 µM [activator, partial curve]",–
COC(=O)c1cccc(Nc2c(-c3ccc(O)c(OC)c3)nc3nc[nH]n23)c1,–,inactive: -8.12%
CCOc1nc(-c2ccccc2)ccc1-c1noc(COC)n1,"inconclusive: 39.8 µM [activator, single point]",–
O=C(Cc1ccc(-n2cccc2)cc1)NC1CCCCCC1,"inconclusive: 39.8 µM [inhibitor, single point]",–
CCOC(=O)c1c(NC(=O)c2cc(-c3ccc(Cl)s3)nc3ccccc23)sc(C(N)=O)c1C,–,inactive: -6.66%
COc1ccc(C(=O)N2CCC3(CC2)CCN(c2cccc(-c4ccccc4)c2)CC3)cc1,"inconclusive: 5.01 µM [inhibitor, single point]",–
O=C(c1ccco1)[C@@H]1[C@@H]2C(=O)N(c3ccc(Br)cc3)C(=O)[C@@H]2C2c3ccccc3C=CN21 (stereo partly drawn),active: 12.6 µM,–
COc1ccc(N(CC(=O)NCCc2cccc(C)c2)S(=O)(=O)c2c(C)nn(C)c2C)cc1,"inconclusive: 10 µM [activator, partial curve]",–
Cc1ccccc1OCc1nnc(SCc2cc(=O)c3ccccc3[nH]2)n1C,–,inactive: -2.74%
OCCCN=C1CCCCC1,–,inactive: 8.34%
Cc1cc2nc(-c3cc(NC(=O)c4cc5ccccc5o4)ccc3Cl)oc2cc1C,active: 12.6 µM,–
COc1cc(-c2nnc(SCC(=O)Nc3ccc(F)c(Cl)c3)o2)cc(OC)c1OC,"inconclusive: 39.8 µM [activator, single point]",–
Cc1ccc2nc(-c3ccc(O)cc3)c(Nc3ccc4c(c3)OCO4)n2c1,"inconclusive: 25.1 µM [inhibitor, single point]",–
Cc1cc(C(=O)Nc2nnc(C3CCCCC3)s2)cs1,"inconclusive: 39.8 µM [inhibitor, single point]",–
NCCC[C@@H](CC(=O)N[C@@H]1CCCC[C@H]1C(=O)N[C@H](CC(=O)N[C@@H](CCC(=O)O)CC(=O)O)Cc1ccccc1)NC(=O)C[C@H](Cc1ccccc1)NC(=O)[C@@H]1CCCC[C@H]1N,"inconclusive: 25.1 µM [activator, partial curve]",–
O=C(Nc1cccc(C(=O)N2CCN(c3ccc(Cl)cc3)CC2)c1)c1nsc2ccccc12,active: 20 µM,–
CC1=C(C(N)=O)C(c2cccc(Br)c2)n2nc(SCc3ccccc3)nc2N1 (stereo not drawn),"inconclusive: 39.8 µM [inhibitor, single point]",–
Cn1c(CC(=O)Nc2ccccc2)c(Sc2ccccc2)c2ccccc21,"inconclusive: 39.8 µM [inhibitor, single point]",–
COc1ccc(-n2c(=O)c3ccc(C(=O)NCc4ccc(C)cc4)cc3n(CC(=O)Nc3ccc(F)cc3)c2=O)cc1,"inconclusive: 39.8 µM [inhibitor, single point]",–

Compound,Potency,"max response, negative = inhibition"
O=C(Nc1cnn(Cc2c(Cl)cccc2Cl)c1)C(c1ccccc1)c1ccccc1,"inconclusive: 39.8 µM [inhibitor, single point]",–
COC(=O)C1=CN(c2cccc(C)c2)C=C(C(=O)OC)C1c1cc(OC)c(O)c([N+](=O)[O-])c1,"inconclusive: 31.6 µM [activator, single point]",–
Cc1ccc(NC(=O)c2oc3ccccc3c2NC(=O)c2cc3ccccc3o2)cc1,"inconclusive: 39.8 µM [inhibitor, single point]",–
CC(=O)Cc1nsc(NC(=O)c2ccc(-c3ccc(Cl)cc3Cl)o2)n1,"inconclusive: 39.8 µM [activator, single point]",–
CC(C)CC(NS(=O)(=O)c1ccc2c(c1)oc(=O)n2C)C(=O)NCCc1ccc(Cl)cc1 (stereo not drawn),–,inactive: -23.3%
COc1ccc(/C=C/c2nc(C#N)c(NCCc3ccc(OC)c(OC)c3)o2)cc1OC,–,inactive: -8.02%
CCOC(=O)c1cc(-c2ccc(C)cc2)n(CCC(=O)N2CCN(c3ccccn3)CC2)c1C,"inconclusive: 25.1 µM [activator, single point]",–
Cc1c(-c2nc(N)nc(Nc3ccccc3)n2)oc2ccccc12,"inconclusive: 39.8 µM [activator, single point]",–
COc1cc(OC)c(NC(=O)NC(C)c2c(-n3cccc3)sc(C)c2C)cc1Cl (stereo not drawn),"inconclusive: 39.8 µM [inhibitor, single point]",–
CCOC(=O)/C(=N\Nc1ccc(OC)cc1)c1csc(Nc2ccccc2)n1,"inconclusive: 31.6 µM [inhibitor, single point]",–
O=C(/C=C/c1ccccc1)NC(NC(=S)Nc1ccc(Cl)cc1)C(Cl)(Cl)Cl (stereo not drawn),"inconclusive: 25.1 µM [inhibitor, single point]",–
Cc1cccc(OCCCCCn2ccnc2)c1C,–,inactive: 14%
COc1ccc(Cl)cc1NC(=O)C/C(C)=N/NC(=O)CC#N,–,inactive: -4.97%
Cc1ccccc1-c1nc(CS(=O)(=O)CC(=O)N2CCN(c3ccccc3)CC2)c(C)o1,"inconclusive: 39.8 µM [activator, single point]",–
CCOC(=O)c1cnc2c(N=Nc3ccccc3)c(N)nn2c1N,"inconclusive: 39.8 µM [inhibitor, single point]",–
O=C(Nc1ccc2c(c1)Cc1ccccc1-2)[C@@H]1[C@H](C(=O)O)[C@]2(Cl)C(Cl)=C(Cl)[C@@]1(Cl)C2(Cl)Cl,–,inactive: 25.8%
COc1ccccc1N1CCN(C(c2ccc(N(C)C)cc2)c2nnnn2CCc2ccccc2)CC1 (stereo not drawn),"inconclusive: 31.6 µM [inhibitor, single point]",–
Nc1cc(OCC(F)(F)F)cc([N+](=O)[O-])c1,"inconclusive: 31.6 µM [inhibitor, single point]",–
Cn1c(=O)cc(OCCCC(=O)Nc2ccc(F)cc2)c2ccccc21,"inconclusive: 39.8 µM [activator, single point]",–
O=C(Cc1cccc([N+](=O)[O-])c1)NCc1nc2cccnc2n1Cc1ccc(F)cc1,–,inactive: 12.1%
CCC(CC)c1nnc(NC(=O)c2ccc([N+](=O)[O-])cc2)s1,"inconclusive: 25.1 µM [inhibitor, single point]",–

Compound,Potency,"max response, negative = inhibition"
CCOc1ccc(CC(=O)Nc2c(C(=O)c3ccc(C)cc3)oc3ccccc23)cc1OCC,"inconclusive: 3.16 µM [activator, single point]",–
CCC(=O)N1CCc2cc(Br)cc(S(=O)(=O)N3CCCC(C(=O)Nc4cccc(Cl)c4C)C3)c21 (stereo not drawn),–,inactive: -10.3%
Cc1ccc(-c2c(C)cc3oc(=O)cc(-c4ccccc4)c3c2C)cc1,"inconclusive: 50.1 µM [inhibitor, single point]",–
Clc1cccc(/C=N/Nc2nc(Cl)nc3ccccc23)c1,"inconclusive: 31.6 µM [inhibitor, single point]",–
O=C(Nc1cc(C(F)(F)F)ccc1Cl)C(NCc1ccccc1)c1ccccc1 (stereo not drawn),–,inactive: 1.8%
CCOc1cccc(CC(=O)N2CCc3c([nH]c4ccccc34)C2c2ccc(F)cc2)c1OCC (stereo not drawn),"inconclusive: 39.8 µM [inhibitor, single point]",–
CCOc1ccc(Nc2nc(Cc3nnc(SCC(=O)NC4CCCCC4)n3C)cs2)cc1,"inconclusive: 0.794 µM [inhibitor, full curve, poor fit]",–
Cc1cc(N2CCCCC2)nc2ccc(NC(=O)/C=C/c3ccccc3OC(C)C)cc12,"inconclusive: 39.8 µM [inhibitor, single point]",–
COc1cc(OC)c(-c2nnc(-c3ccc(OC)c(OC)c3OC)o2)cc1OC,"inconclusive: 39.8 µM [activator, single point]",–
Cc1nc2c(-c3ccccc3)c(C)nn2c(C)c1CCC(=O)N1CCOCC1,"inconclusive: 31.6 µM [activator, single point]",–
Cc1ccccc1Nc1nnc(SCC(=O)NC(=O)Nc2ccc3c(c2)OCCO3)s1,"inconclusive: 25.1 µM [inhibitor, single point]",–
Cc1cccc(CSc2cn(CC(=O)N3CCCC3)c3ccccc23)c1,"inconclusive: 39.8 µM [activator, single point]",–
CCc1ccc2oc(-c3cccc(NC(=O)c4ccc(N5CCC(C)CC5)c([N+](=O)[O-])c4)c3)nc2c1,"inconclusive: 1 µM [inhibitor, full curve]",–
CCOc1ccc(-c2nc(CSCC(=O)N3CCN(c4cccc(OC)c4)CC3)c(C)o2)cc1,"inconclusive: 15.8 µM [activator, partial curve]",–
COc1cccc(NC(=O)Cn2cc(S(=O)(=O)N3CCCC3)c(S(=O)(=O)N3CCCC3)c2)c1,–,inactive: -0.312%
O=C1CC(SC(=Nc2ccccc2)Nc2ccccc2)C(=O)N1c1ccc(Cl)c(Cl)c1 (stereo not drawn),"inconclusive: 25.1 µM [inhibitor, single point]",–
Cc1cc(C)n(CCOC(=O)c2sc3ccccc3c2Cl)n1,–,inactive: 16.3%
CCc1ccc(OCc2nnc(NC(=O)c3cccs3)s2)cc1,active: 12.6 µM,–
CCCCCCCCCCCCCCCC[N+](C)(C)C,"inconclusive: 39.8 µM [activator, single point]",–
CCN(CC)S(=O)(=O)c1cccc(C(=O)N/N=C/c2ccc(O)c(O)c2O)c1,"inconclusive: 20 µM [inhibitor, single point]",–
CC(=O)Nc1sc2c(c1C(c1ccc(Cl)cc1)N1CCOCC1)CCCC2 (stereo not drawn),"inconclusive: 31.6 µM [activator, single point]",–
